{"source": "PubChem BioAssay AID1460", "about": "(National Center for Advancing Translational Sciences (NCATS), 2008)", "note": "The whole screen tested about 270,000 compounds, of which about 5,800 (2.1%) were called active. Inconclusive results, whose numbers are uncertain, are shown with a selection of clear calls. The call rests on the fitted dose curve; in most records, active means well fitted inhibition curve with a large enough effect; inconclusive means small, poorly fitted or top-dose-only effect; inactive means flat fitted curve, though single readings scatter. Potencies beside an inconclusive call are fits to weak or partial responses and may not hold up. On the % scale 0 is the no-effect control and ±100 the full control effect; potency means the concentration at half of the fitted maximal effect; tags describe the fitted curve by direction and shape.", "data": [{"target": "Microtubule-associated protein tau (Homo sapiens) (UniProt P10636)", "sequence (P10636 whole entry, looked up, the tested form may be a part)": "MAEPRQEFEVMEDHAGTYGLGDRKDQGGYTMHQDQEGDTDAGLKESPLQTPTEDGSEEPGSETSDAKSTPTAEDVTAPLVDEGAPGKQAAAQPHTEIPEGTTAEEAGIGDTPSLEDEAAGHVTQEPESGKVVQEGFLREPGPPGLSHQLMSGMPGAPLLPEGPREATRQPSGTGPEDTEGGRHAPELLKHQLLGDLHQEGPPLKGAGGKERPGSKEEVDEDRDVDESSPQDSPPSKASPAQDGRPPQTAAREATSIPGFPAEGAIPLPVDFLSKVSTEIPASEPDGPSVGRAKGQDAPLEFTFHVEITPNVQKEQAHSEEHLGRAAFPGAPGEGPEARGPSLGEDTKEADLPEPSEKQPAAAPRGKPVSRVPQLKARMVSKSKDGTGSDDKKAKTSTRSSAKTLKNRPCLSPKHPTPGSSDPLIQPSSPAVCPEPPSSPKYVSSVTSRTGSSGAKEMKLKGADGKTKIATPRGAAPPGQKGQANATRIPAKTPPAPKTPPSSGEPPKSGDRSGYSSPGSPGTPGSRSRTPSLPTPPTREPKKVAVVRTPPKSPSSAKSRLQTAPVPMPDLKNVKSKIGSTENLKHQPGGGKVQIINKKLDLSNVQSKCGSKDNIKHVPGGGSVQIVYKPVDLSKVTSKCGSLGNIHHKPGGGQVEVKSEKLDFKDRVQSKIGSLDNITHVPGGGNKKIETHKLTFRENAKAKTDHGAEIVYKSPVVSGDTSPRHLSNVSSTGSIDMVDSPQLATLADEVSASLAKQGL", "assay": "qHTS for Inhibitors of Tau Fibril Formation, Thioflavin T Binding; further: nearly all actives have a fitted effect of over 55% in size", "conditions": "recombinant tau K18 P301L (four-repeat tau fragment), heparin-induced fibrillization, ThT fluorescence; series mostly up to 57.4 µM", "summary_of_the_method": "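Heparin-induced fibrillization of the P301L-mutant K18 repeat-domain fragment of human tau was followed by ThT binding in quantitative high-throughput format.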", "values": [{"smiles": "Cc1cc(Oc2ncccc2[N+](=O)[O-])c2cc(Cl)ccc2n1", "Potency": "inconclusive: 1.41 µM [inhibitor, partial curve]"}, {"smiles": "CN(C)S(=O)(=O)c1ccc(C(=O)Nc2nc(-c3cc4ccccc4o3)cs2)cc1", "Potency": "inactive"}, {"smiles": "FC(F)(F)c1cc(-c2ccco2)nc2ncnn12", "Potency": "inactive"}, {"smiles": "CCc1ccc(NC(=O)CC2C(=O)N(c3ccc(F)cc3)C(=O)N2Cc2ccc(F)cc2)cc1", "note": "(stereo not drawn)", "Potency": "inconclusive: 25.1 µM [activator, single point]"}, {"smiles": "O=C(N1CCCC1)N1CCN(c2ncnc3c(-c4ccc(Cl)cc4)nsc23)CC1", "Potency": "inconclusive: 1.41 µM [inhibitor, full curve]"}, {"smiles": "CCC/C(O)=C1\\C(=O)CC(C)(C)CC1=Nc1ccccc1O", "Potency": "inactive"}, {"smiles": "CC(C)NC(=O)CSc1c2c(nc3ccccc13)CCCC2", "Potency": "inconclusive: 3.55 µM [inhibitor, full curve, poor fit]"}, {"smiles": "COc1ccc(N2CCN(CC(O)COc3c(OC)cccc3OC)CC2)cc1", "note": "(stereo not drawn)", "Potency": "inconclusive: 15.8 µM [inhibitor, partial curve]"}, {"smiles": "COCCn1c(SCC(=O)N2CCc3ccccc3C2)nc2cc(Cl)ccc2c1=O", "Potency": "inconclusive: 28.2 µM [inhibitor, partial curve, poor fit]"}, {"smiles": "CCOc1ccc(NC(=O)c2c(NCc3cccs3)sc3c2CCC(C)C3)cc1", "note": "(stereo not drawn)", "Potency": "inconclusive: 28.2 µM [inhibitor, single point]"}, {"smiles": "Cc1cc(Cl)c(S(=O)(=O)NCc2ccccc2)cc1OCC(N)=O", "Potency": "inactive"}, {"smiles": "Cc1cc(NC(=O)c2ccc(N3CCCC3)c([N+](=O)[O-])c2)no1", "Potency": "inconclusive: 7.94 µM [inhibitor, partial curve]"}, {"smiles": "COc1ccc(O)c(C(=O)c2cnc3c(c2)CN(C)C(=O)N3)c1", "Potency": "inconclusive: 25.1 µM [inhibitor, single point]"}, {"smiles": "CCN(CC)S(=O)(=O)c1ccc(N2CCCCC2)c(NC(=O)c2ccncc2)c1", "Potency": "inactive"}, {"smiles": "Cc1ccccc1-c1nc(CN2CCC(C(=O)NC(C)C)CC2)c(C)o1", "Potency": "inactive"}, {"smiles": "CCOC(=O)CSc1ccc(C(=O)Nc2ccc(OC)cc2)cn1", "Potency": "inconclusive: 22.4 µM [inhibitor, partial curve]"}, {"smiles": "Nc1ccc(Nc2ccccc2N)cc1", "Potency": "active: 15.8 µM"}, {"smiles": "CCOC(=O)c1sc(N)c(C(=O)OC)c1C", "Potency": "inactive"}, {"smiles": "COc1ccccc1-c1ccc(SCc2ccccc2F)nn1", "Potency": "inconclusive: 20 µM [inhibitor, single point]"}, {"smiles": "O=C(NCCSCc1ccccc1)C1CCN(S(=O)(=O)Cc2ccccc2)CC1", "Potency": "inconclusive: 15.8 µM [inhibitor, partial curve]"}, {"smiles": "COCc1cc(=O)n2[nH]c(-c3ccsc3-n3c(C)ccc3C)cc2n1", "Potency": "active: 22.4 µM"}, {"smiles": "CC(C)N(c1ccccc1)c1ccc(NC(=S)NCCN(C)C)cc1", "Potency": "inactive"}, {"smiles": "COc1ccc(C)cc1NS(=O)(=O)c1ccc2oc(=O)c3ncn(C)c3c2c1", "Potency": "inactive"}, {"smiles": "O=[N+]([O-])c1ccc(NC(=S)NCCc2ccccc2)cc1", "Potency": "inconclusive: 14.1 µM [inhibitor, partial curve, poor fit]"}, {"smiles": "CCN(CC)c1ccc(/C=c2/sc3nnc(-c4ccccc4C)n3c2=O)cc1", "Potency": "inconclusive: 2.82 µM [inhibitor, full curve]"}, {"smiles": "O=c1[nH]nc(Cc2ccc(Cl)cc2Cl)c2ccccc12", "Potency": "inactive"}, {"smiles": "Cc1ccc(-c2cc(C(=O)N3CCc4ccccc4C3)no2)cc1", "Potency": "inconclusive: 25.1 µM [inhibitor, partial curve]"}, {"smiles": "Cc1cccc(NC(=S)NNC(=O)c2cc3c(s2)CCC(C)C3)c1C", "note": "(stereo not drawn)", "Potency": "inconclusive: 8.91 µM [inhibitor, partial curve]"}, {"smiles": "COc1cccc(C(=O)N/N=C/c2ccc(OC3CSC3)cc2)c1", "Potency": "inconclusive: 1 µM [inhibitor, full curve]"}, {"smiles": "CCC(Sc1nc2ncccc2[nH]1)C(=O)Nc1cccc(OC)c1", "note": "(stereo not drawn)", "Potency": "inactive"}, {"smiles": "Oc1c(Br)cc(Cl)cc1C=Nc1ccc(N2CCOCC2)cc1", "Potency": "active: 15.8 µM"}, {"smiles": "COc1ccc2nc(N3C(=O)/C(=C/c4ccccc4)NC3=S)sc2c1", "Potency": "active: 3.98 µM"}, {"smiles": "CCOC(=O)c1sc(NCc2ccco2)c(-c2nc3ccccc3s2)c1N", "Potency": "inconclusive: 5.01 µM [inhibitor, full curve]"}, {"smiles": "Cc1ccc(-c2cn3nc(N4CCCC(C(=O)Nc5ccc(F)cc5)C4)sc3n2)cc1", "note": "(stereo not drawn)", "Potency": "inconclusive: 15.8 µM [inhibitor, partial curve]"}, {"smiles": "CN(C)c1ccc(/C=N/O)cc1", "Potency": "inactive"}, {"smiles": "C[C@@H]1CC=C[C@@H]2[C@H]1C(=O)N(Cc1ccccc1)[C@H]2c1cccc(Br)c1", "Potency": "inconclusive: 5.01 µM [inhibitor, full curve, poor fit]"}, {"smiles": "Cc1cc2oc(=O)cc(CN3CCN(C/C=C/c4ccccc4)CC3)c2cc1O", "Potency": "inconclusive: 39.8 µM [inhibitor, single point]"}, {"smiles": "CC(=O)OCC1OC(n2cnc3c(Cl)nc(Cl)nc32)C(OC(C)=O)C1OC(C)=O", "note": "(stereo not drawn)", "Potency": "inconclusive: 12.6 µM [inhibitor, partial curve]"}, {"smiles": "CCc1ccc(/C=N/N2CCN(c3ccccn3)CC2)cc1", "Potency": "inconclusive: 15.8 µM [inhibitor, partial curve]"}, {"smiles": "Cc1cccc(Nc2nc(-c3cccs3)cs2)n1", "Potency": "inconclusive: 3.16 µM [inhibitor, partial curve]"}, {"smiles": "O=C(Cc1ccc2c(c1)OCCO2)N1CCN(c2ccccc2)CC1", "Potency": "inactive"}, {"smiles": "CSc1nc(-c2ccco2)nn1C(=O)CCc1ccccc1", "Potency": "inconclusive: 39.8 µM [inhibitor, single point]"}, {"smiles": "O=C(CSc1nnc(COc2cccc3ccccc23)o1)N1CCN(C(=O)c2ccco2)CC1", "Potency": "inconclusive: 1.78 µM [inhibitor, full curve]"}, {"smiles": "O=C(OC1CCN(c2ncc(C(F)(F)F)cc2Cl)CC1)c1ccccc1", "Potency": "inconclusive: 17.8 µM [inhibitor, partial curve, poor fit]"}, {"smiles": "N/C(=N\\OC(=O)COc1ccc2ccccc2c1)c1ccncc1", "Potency": "inconclusive: 2.24 µM [inhibitor, full curve]"}, {"smiles": "CCOc1ccc(C(c2c(O)cc(C)n(CCOC)c2=O)N2CCN(c3ccccc3)CC2)cc1", "note": "(stereo not drawn)", "Potency": "inconclusive: 5.62 µM [inhibitor, partial curve]"}, {"smiles": "O=C(NCc1ccc2c(c1)OCO2)c1cc2c(s1)CSC2", "Potency": "inconclusive: 20 µM [inhibitor, partial curve]"}, {"smiles": "CCC1CCCCN1CCCNC(=O)c1[nH]c2ccccc2c1Sc1ccc(Cl)cc1", "note": "(stereo not drawn)", "Potency": "inactive"}, {"smiles": "Cn1c(=O)c2c(-c3ccc(Cl)cc3)n(Cc3ccc(Cl)cc3)cc2n(C)c1=O", "Potency": "inconclusive: 7.94 µM [inhibitor, full curve, poor fit]"}, {"smiles": "CCn1cc(C(=O)OCC(=O)OC2CC(C)CCC2C(C)C)c(=O)c2ccc(C)nc21", "note": "(stereo not drawn)", "Potency": "inconclusive: 15.8 µM [inhibitor, partial curve]"}, {"smiles": "COc1ccc(C(=O)NCCn2cc(SCC(=O)Nc3ccc(C)cc3)c3ccccc32)cc1", "Potency": "inconclusive: 8.91 µM [inhibitor, partial curve]"}, {"smiles": "Cc1ccc(CNC(=O)NCc2noc3ccc(C)cc23)cc1", "Potency": "inactive"}, {"smiles": "c1ccc(-c2cn3c(n2)-c2ccccc2C3)cc1", "Potency": "inconclusive: 2.82 µM [inhibitor, full curve, poor fit]"}, {"smiles": "CCCCC/C=C\\C[C@@H]1O[C@H]1C(O)/C=C\\C/C=C\\CCCC(=O)O", "note": "(stereo partly drawn)", "Potency": "inactive"}, {"smiles": "COc1ccc(-c2cnc(NCc3cc4c(cc3[N+](=O)[O-])OCO4)n2C)cc1", "Potency": "inconclusive: 17.8 µM [inhibitor, partial curve]"}, {"smiles": "COc1ccccc1CCNC(=O)c1ccc(C)o1", "Potency": "inactive"}, {"smiles": "Cc1cc(C)nc(NC(=S)Nc2ccccc2)n1", "Potency": "inactive"}, {"smiles": "COc1cc2c(C(=O)O)c(C)n(CC(C)C)c2c2ccccc12", "Potency": "inconclusive: 22.4 µM [inhibitor, partial curve]"}, {"smiles": "O=C(Nc1nnc(C2CCCO2)s1)c1cccs1", "note": "(stereo not drawn)", "Potency": "inactive"}, {"smiles": "CCOc1cc2c(cc1OCC)C(c1ccc(OC)cc1)N(c1ccccc1)C(=O)C2", "note": "(stereo not drawn)", "Potency": "inconclusive: 17.8 µM [inhibitor, partial curve]"}, {"smiles": "COc1ccc(OC)c(NCc2cccn2-c2nnc(N3CCCCC3)s2)c1", "Potency": "inconclusive: 28.2 µM [inhibitor, single point]"}, {"smiles": "CN1CCc2c(sc3c2C(=O)NC(c2ccc(OC(=O)c4ccccc4)cc2)N3)C1", "note": "(stereo not drawn)", "Potency": "active: 5.62 µM"}, {"smiles": "Cc1c(Cc2ccccc2)sc(N)c1C(N)=O", "Potency": "inconclusive: 17.8 µM [inhibitor, partial curve]"}, {"smiles": "C(/C=C/c1ccccc1)=N/N1CCN(c2ccccc2)CC1", "Potency": "inconclusive: 3.55 µM [inhibitor, full curve]"}, {"smiles": "COC(=O)/C(=C\\C(=O)c1ccccc1)Nc1ccc(OC)cc1", "Potency": "inconclusive: 22.4 µM [inhibitor, partial curve]"}, {"smiles": "COCCOC(=O)c1c(NC(=O)CSc2cccc[n+]2[O-])sc(C(N)=O)c1C", "Potency": "inactive"}, {"smiles": "CCN1CCN(c2ncc(C(=O)Nc3ccccc3C(=O)OC)c3ccccc23)CC1", "Potency": "inactive"}, {"smiles": "Cc1cc(NCc2ccccn2)n2ncc(-c3ccccc3)c2n1", "Potency": "inconclusive: 5.62 µM [inhibitor, partial curve]"}, {"smiles": "O=C(NC1CCCCC1)N1CCc2[nH]c3ccccc3c2C1", "Potency": "inconclusive: 28.2 µM [inhibitor, single point]"}, {"smiles": "COCCCn1c(=O)c2sccc2n2c(CCCC(=O)Nc3cc(C)cc(C)c3)nnc12", "Potency": "inactive"}, {"smiles": "CCOC(=O)[C@]1(C(NC(=O)OC)c2cccc(C)c2)CCCC1=O", "note": "(stereo partly drawn)", "activity, negative = inhibition": "inactive: -7.09% [at 11.5 µM]"}, {"smiles": "CC1=CC(=O)N(c2cccc(C(F)(F)F)c2)C1c1ccc(Cl)cc1", "note": "(stereo not drawn)", "Potency": "inactive"}, {"smiles": "CC1=Nc2ccccc2/C1=C/c1c(N)n2c(S(=O)(=O)C(C)C)nsc2nc1=O", "Potency": "inconclusive: 11.2 µM [inhibitor, partial curve]"}]}]}
